Holding throughout (test): Primary Screen for Target Class Profiling of Small Molecule Inhibitors of Methyltransferases
The target in assay [1] is Glycine N-methyltransferase (Homo sapiens) (UniProt Q14749). As to conditions: purified enzyme, MTase-Glo SAH luminescence; measured here: GNMT inhibition; at 40 µM; stronger effect = lower value. The method, boiled down:
(§1)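 Each enzyme was assayed with SAM and its substrate. SAH formation detected by MTase-Glo luminescence; single-point 40 uM screen[…].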

In assay [2] the target is Guanidinoacetate N-methyltransferase (Homo sapiens) (UniProt Q14353). Particulars: purified enzyme, MTase-Glo SAH luminescence; measured here: GAMT inhibition; at 40 µM; stronger effect = lower value. In outline:
as §1

The target in assay [3] is Histamine N-methyltransferase (Homo sapiens) (UniProt P50135). As to conditions: purified enzyme, MTase-Glo SAH luminescence; measured here: HNMT inhibition; at 40 µM; stronger effect = lower value. In outline:
as §1

Assay [4] deals with Nicotinamide N-methyltransferase (Homo sapiens) (UniProt P40261). Particulars: purified enzyme, MTase-Glo SAH luminescence; measured here: NNMT inhibition; at 40 µM; stronger effect = lower value. The method, boiled down:
as §1

In assay [5] the target is Phenylethanolamine N-methyltransferase (Homo sapiens) (UniProt P11086). As to conditions: purified enzyme, MTase-Glo SAH luminescence; measured here: PNMT inhibition; at 40 µM; stronger effect = lower value. The method, boiled down: as §1

Structures are written as SMILES. The list shows a part of the results. Shown are side measurements of this screen, not its main read-out; they come without a call.
% is scaled to controls: 0 for no effect and ±100 for the full control effect.

Regarding `O=C(Nc1ccc2ncnc(N3CCCC3)c2c1)c1ccc(Cl)s1`, the activity change, negative = inhibition in assay [1] is -14.2%; in assay [2], -8.33%; in assay [3], -22.9%; in assay [4], -18%; in assay [5], -7.64%.

Turning to `CN1C(=O)COC[C@@H]1[C@H](O)c1ccc(NC(=O)Nc2ccccc2)cc1`, the activity change, negative = inhibition in assay [1] is -6.22%; in assay [2], -8.82%; in assay [3], -2.24%; in assay [4] it was -3.92%; in assay [5], -8.52%.

For the molecule `Cc1ccc(Cn2c(=O)c3ccccc3n3c(CCC(=O)NCCCN4CCN(C)CC4)nnc23)cc1`, the activity change, negative = inhibition was -6.98% in assay [1]; 3.04% in assay [2]; -35.6% in assay [3]; 2.96% in assay [4]; 1.94% in assay [5].

As for `Cc1ccc(C)c(CC(=O)NCc2cc3n(n2)CCN(C(=O)N(C)C)C3)c1`, the activity change, negative = inhibition in assay [1] is -4.39%; in assay [2] it was -2.26%; in assay [3], -1.27%; in assay [4], -10.1%; in assay [5], -4.66%.

As to `O=C(CCc1nnc2n(Cc3ccc(F)cc3)c(=O)c3ccccc3n12)N1CCN(Cc2ccccc2)CC1`, the activity change, negative = inhibition in assay [1] is -14.9%; in assay [2], -2.83%; in assay [3] it was -8.07%; in assay [4], -29.2%; in assay [5] it was -6.69%.

On to `COc1ccc(CN2C[C@@H](F)[C@@H](OCc3nc4ccncc4[nH]3)C2)cc1`, for which the activity change, negative = inhibition in assay [1] was -2.16%; in assay [2] it was 0.597%; in assay [3], -7.32%; in assay [4] it was -9.44%; in assay [5] it was 6.27%.

Regarding `CC1CCN(S(=O)(=O)c2ccc3c(ccn3CC(=O)NCc3ccc4c(c3)OCO4)c2)CC1`, the activity change, negative = inhibition was determined as 2.06% in assay [1]; 0.259% in assay [2]; 3.94% in assay [3]; 1.07% in assay [4]; 1.68% in assay [5].

Take `COc1ccc(NC(=O)C2CCCN(c3cnn(Cc4ccccc4)c(=O)c3)C2)cc1OC` (stereo not given): the activity change, negative = inhibition was -11.2% in assay [1]; -2.4% in assay [2]; -2.08% in assay [3]; -6.71% in assay [4]; -2.3% in assay [5].

For `COc1ccc2[nH]cc(C(=O)Cn3nc4n(Cc5ccccc5)c(=O)c5ccccc5n4c3=O)c2c1`, the activity change, negative = inhibition in assay [1] was 1.02%; in assay [2], 0.427%; in assay [3] it was 6.13%; in assay [4], -1.83%; in assay [5] it was 0.257%.

Take `Cc1ccc(-c2cc3n(n2)CCCN(C(=O)c2cc(CN4CCOCC4)on2)C3)o1`: the activity change, negative = inhibition in assay [1] was -7%; in assay [2], -4.99%; in assay [3] it was -0.485%; in assay [4], -9.06%; in assay [5] it was -9.62%.

As for `CS(=O)(=O)NC1CCN(Cc2cc(=O)c3cc(C(N)=O)ccc3[nH]2)CC1`, the activity change, negative = inhibition in assay [1] is 0.034%; in assay [2], 0.136%; in assay [3], 0.9%; in assay [4] it was -3.94%; in assay [5], -3.1%.

`CCCn1c(=O)c2ccc(C(=O)NCC(C)C)cc2n2c(SCC(=O)Nc3ccc(C)cc3C)nnc12`: the activity change, negative = inhibition is -0.435% in assay [1]; 6.77% in assay [2]; -1.34% in assay [3]; 1.94% in assay [4]; -2.08% in assay [5].

On to `CCCOc1ccc(CN2C(=O)c3cc4occc4n3CC2(C)C(=O)NC2CCCCC2)cc1` (stereo not given), for which the activity change, negative = inhibition was 0.927% in assay [1]; 2.07% in assay [2]; 5.87% in assay [3]; -2.32% in assay [4]; 2.06% in assay [5].

`O=C1CN(Cc2ccc(Br)cc2)S(=O)(=O)c2ccccc2N1Cc1ccc(F)cc1`: the activity change, negative = inhibition in assay [1] is -0.602%; in assay [2], 0.422%; in assay [3] it was -2.53%; in assay [4] it was -4.83%; in assay [5] it was -4.75%.

On to `COc1ccccc1/C=C/CN1CCn2nc(CO)cc2C1`, for which the activity change, negative = inhibition is -7.16% in assay [1]; -1.66% in assay [2]; -2.4% in assay [3]; -7.42% in assay [4]; -1.14% in assay [5].

With `CN1C2CCCC1CC(NC(=O)c1nn(C)c3ccccc13)C2` (stereo not given), the activity change, negative = inhibition is -4.01% in assay [1]; 3.93% in assay [2]; -25.9% in assay [3]; -8.79% in assay [4]; 3.49% in assay [5].

Consider `CC1(C(=O)NC2CCCCCC2)Cn2c(nc3ccccc32)C(=O)N1Cc1ccc(Cl)cc1` (stereo not given), for which the activity change, negative = inhibition was -4.75% in assay [1]; -1.2% in assay [2]; -1.67% in assay [3]; -9.02% in assay [4]; -8.92% in assay [5].

With `CCOC(=O)c1ccc2c(c1)[C@@H]1C=CC[C@@H]1[C@H](c1ccccc1Br)N2`, the activity change, negative = inhibition in assay [1] was -10.1%; in assay [2], 0%; in assay [3], -7.03%; in assay [4], -12.8%; in assay [5] it was -10.5%.

For `Cc1cccc(CCN2CCC3(CC2)C(C(=O)O)CC(=O)N3C)n1` (stereo not given), the activity change, negative = inhibition in assay [1] was 1.32%; in assay [2], 2.47%; in assay [3], 1.28%; in assay [4] it was -1.08%; in assay [5] it was -1.08%.

Consider `CC1(C(=O)NC2CCCCCC2)Cn2c(ccc2-c2ccco2)C(=O)N1Cc1ccc(F)cc1` (stereo not given), for which the activity change, negative = inhibition in assay [1] is 1.15%; in assay [2] it was 4.14%; in assay [3], 7.35%; in assay [4] it was -3.15%; in assay [5], 0.095%.

For the molecule `CC1CCN(C(=O)C2(c3ccc(NC(=O)C4CC4)cc3)CCCCC2)CC1`, the activity change, negative = inhibition was -5.62% in assay [1]; -8.32% in assay [2]; -1.22% in assay [3]; -8.51% in assay [4]; -2.82% in assay [5].

As for `Cc1cnc(C2CCOCC2)n1CCN`, the activity change, negative = inhibition in assay [1] was -0.037%; in assay [2] it was 2.27%; in assay [3], 1.96%; in assay [4], -2.77%; in assay [5] it was 0.09%.

As for `CCC(C)NC(=O)c1ccc2c(=O)n(CC(C)C)c3nn(CC(=O)NC4CCCCC4)c(=O)n3c2c1` (stereo not given), the activity change, negative = inhibition came out at 7.38% in assay [1]; 0% in assay [2]; 8.25% in assay [3]; 4.42% in assay [4]; 6.59% in assay [5].

Consider `CC(C)n1nc(CNC(=O)c2ccc(F)c(F)c2)c2ccccc21`, for which the activity change, negative = inhibition was found to be 14.8% in assay [1]; 5.17% in assay [2]; 13.3% in assay [3]; 6.88% in assay [4]; 8.37% in assay [5].

Turning to `Cc1c(Cl)cccc1N1C(=O)c2cc(C3CC3)nn2CC1(C)C(=O)NC1CCCCCC1` (stereo not given), the activity change, negative = inhibition in assay [1] was -6%; in assay [2] it was 4.68%; in assay [3], -3.2%; in assay [4], 0.937%; in assay [5], -2.92%.

For the molecule `CCC(C)NC(=O)c1ccc2c(=O)n(C3CC3)c3nn(CC(=O)Nc4ccc(C)cc4)c(=O)n3c2c1` (stereo not given), the activity change, negative = inhibition in assay [1] is -3.79%; in assay [2], 2.41%; in assay [3] it was 0.011%; in assay [4], -6.25%; in assay [5], 0.442%.

For the molecule `CC1CCCCN1C(=O)C1COC2(CCN(C(=O)c3ccco3)CC2)N1C(=O)c1ccccc1` (stereo not given), the activity change, negative = inhibition was -3.44% in assay [1]; -2.45% in assay [2]; -1.3% in assay [3]; -2.22% in assay [4]; 2.78% in assay [5].
